Results on 44 compounds are retold here after PMC4336329 (PLoS ONE, 2015).

Structures are written as SMILES. Out of some 310,000 compounds screened, about 14,000 (4.5%) showed an effect of 50% or more. The effect is printed as a negative number. This is one part of the list.
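Note: peak tail current of the secondary pulse compared with the same well before compound.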

Sequence of human ether-à-go-go-related gene (hERG) potassium channel (Q12809 whole entry, looked up): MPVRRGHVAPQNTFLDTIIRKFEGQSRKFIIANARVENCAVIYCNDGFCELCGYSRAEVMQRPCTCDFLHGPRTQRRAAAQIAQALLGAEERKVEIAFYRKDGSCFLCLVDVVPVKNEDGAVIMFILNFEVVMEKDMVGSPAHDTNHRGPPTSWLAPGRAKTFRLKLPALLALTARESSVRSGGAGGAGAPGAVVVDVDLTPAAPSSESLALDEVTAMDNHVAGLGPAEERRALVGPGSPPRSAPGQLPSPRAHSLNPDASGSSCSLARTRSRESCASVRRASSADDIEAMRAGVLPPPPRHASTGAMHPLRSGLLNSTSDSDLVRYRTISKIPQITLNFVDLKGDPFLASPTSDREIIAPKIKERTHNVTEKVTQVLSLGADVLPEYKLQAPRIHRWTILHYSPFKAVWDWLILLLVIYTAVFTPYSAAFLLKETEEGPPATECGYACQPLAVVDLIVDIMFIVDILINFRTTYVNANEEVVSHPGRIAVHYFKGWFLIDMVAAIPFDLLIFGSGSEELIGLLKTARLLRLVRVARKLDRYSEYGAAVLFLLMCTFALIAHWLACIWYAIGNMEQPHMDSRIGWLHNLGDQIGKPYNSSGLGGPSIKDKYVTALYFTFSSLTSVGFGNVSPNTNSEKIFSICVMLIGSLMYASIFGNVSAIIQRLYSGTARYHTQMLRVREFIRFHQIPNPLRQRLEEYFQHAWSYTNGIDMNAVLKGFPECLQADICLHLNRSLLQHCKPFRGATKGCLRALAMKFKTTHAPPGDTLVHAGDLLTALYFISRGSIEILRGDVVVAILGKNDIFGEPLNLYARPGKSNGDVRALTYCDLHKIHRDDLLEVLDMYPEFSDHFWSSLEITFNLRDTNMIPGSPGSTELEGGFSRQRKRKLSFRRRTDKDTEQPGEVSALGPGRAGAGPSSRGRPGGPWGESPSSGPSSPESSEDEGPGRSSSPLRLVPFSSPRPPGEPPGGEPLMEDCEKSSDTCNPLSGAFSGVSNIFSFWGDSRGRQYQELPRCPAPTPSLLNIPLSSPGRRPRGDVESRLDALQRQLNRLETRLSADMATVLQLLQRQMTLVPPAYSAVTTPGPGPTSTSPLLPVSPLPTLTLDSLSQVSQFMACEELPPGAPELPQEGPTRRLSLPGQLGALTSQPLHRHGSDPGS

This experiment addresses human ether-à-go-go-related gene (hERG) potassium channel (human, UniProt Q12809). The experiment can be described thus: primary screen, population patch clamp on CHO cells stably expressing hERG.
With `O=C(NCCN1CCOCC1)c1cc2c(=O)n3ccccc3nc2n1Cc1ccccc1`, the “hERG current change (%, negative = inhibition) at 10uM” value was -5.9%.

Take `CCOC(=O)CC(=O)CSc1nnc2c(n1)[nH]c1ccccc12`: the “hERG current change (%, negative = inhibition) at 10uM” value is -28.6%.

In the case of `Cc1ccc(NCC(=O)N/N=C/c2cccc(Br)c2)cc1`, the “hERG current change (%, negative = inhibition) at 10uM” value was -2.51%.

Take `CC1CCC(NC(=O)c2ccc(NC(=O)c3ccc(=O)[nH]c3)cc2)CC1` (centres unmarked): the “hERG current change (%, negative = inhibition) at 10uM” value is given as -1.67%.

With `COc1ccc(CN2C(=O)C(=O)N(CC(N)=O)C2=O)cc1`, the “hERG current change (%, negative = inhibition) at 10uM” value is 27.6%.

As for `Cc1ccc(S(=O)(=O)NCc2ccccc2)cc1C(=O)NC1CCC(C)CC1` (centres unmarked), the “hERG current change (%, negative = inhibition) at 10uM” value was 1.37%.

Consider `S=C(N/N=C/c1ccc2ncccc2c1)Nc1ccccc1`, for which the “hERG current change (%, negative = inhibition) at 10uM” value was 63.6%.

On to `O=C(/C=C/c1ccc(Cl)c([N+](=O)[O-])c1)Nc1ccc(N2CCCC2)cc1`, for which the “hERG current change (%, negative = inhibition) at 10uM” value worked out at 3.74%.

In the case of `CCc1cc2c(-c3ccccc3)cc(=O)oc2cc1OC(=O)c1cccs1`, the “hERG current change (%, negative = inhibition) at 10uM” value is on record as 23.3%.

Turning to `O=C1CCC(=O)N1CCSC(=S)N1CCSCC1`, the “hERG current change (%, negative = inhibition) at 10uM” value is recorded as 2.09%.

With `CC(=O)C1=C(Nc2ccc(C)cc2)CC(C)(O)C(C(C)=O)C1c1ccco1` (centres unmarked), the “hERG current change (%, negative = inhibition) at 10uM” value came to 0.317%.

Take `CCCC12CN3CCN(CC(C3)/C1=N\NC(=O)c1ccccc1Cl)C2`: the “hERG current change (%, negative = inhibition) at 10uM” value is -9.7%.

Take `O=S(=O)(/C=C/c1ccccc1)N1CCOCC1`: the “hERG current change (%, negative = inhibition) at 10uM” value came to 7.65%.

Regarding `Nc1nnc(CCCCCCCCCCc2nnc(N)s2)s1`, the “hERG current change (%, negative = inhibition) at 10uM” value came out at 15.7%.

Take `O=C(NCc1ccc(F)cc1)C1Cc2ccccc2CN1C(=O)c1ccco1` (centres unmarked): the “hERG current change (%, negative = inhibition) at 10uM” value is on record as -42.1%.

Consider `Cc1nn(-c2ccc(F)cc2)c2sc(C(=O)OC3CCOC3=O)cc12` (centres unmarked), for which the “hERG current change (%, negative = inhibition) at 10uM” value was determined as 5.23%.

Take `NC(=S)N/N=C/c1ccc(-c2cccc([N+](=O)[O-])c2)o1`: the “hERG current change (%, negative = inhibition) at 10uM” value is reported as -12.1%.

Turning to `CCC(C)[C@H](NC(=O)Nc1ccc2c(c1)OCCO2)C(=O)O` (some centres unmarked), the “hERG current change (%, negative = inhibition) at 10uM” value is listed as -23.9%.

As to `COc1ccc(S(=O)(=O)NN(C)c2ncc(C(F)(F)F)cc2Cl)cc1`, the “hERG current change (%, negative = inhibition) at 10uM” value is on record as -7.18%.

On to `CCCc1nnc(NC(=O)CN2CCN(C)CC2)s1.Cl`, for which the “hERG current change (%, negative = inhibition) at 10uM” value was -1.91%.

With `CCn1cc(C=C2C(=O)N(C)C(=O)N(C)C2=O)c2ccccc21`, the “hERG current change (%, negative = inhibition) at 10uM” value came to 3.29%.

For `O=C(Cn1nnc(-c2ccccc2)n1)N/N=C/c1cccc([N+](=O)[O-])c1O`, the “hERG current change (%, negative = inhibition) at 10uM” value came out at 7.25%.

Turning to `O=C(Cc1cccs1)NCCS(=O)(=O)N1CCN(c2ccccc2F)CC1`, the “hERG current change (%, negative = inhibition) at 10uM” value is -31.6%.

Take `c1ccc(Nc2nc(N3CCOCC3)nc(N3CCOCC3)n2)cc1`: the “hERG current change (%, negative = inhibition) at 10uM” value is -7.35%.

For `COC1c2ccccc2C(=O)N1CCc1ccc(Cl)cc1` (centres unmarked), the “hERG current change (%, negative = inhibition) at 10uM” value is listed as -26.7%.

As to `CCOC(=O)N1CCN(C(=O)CN2C(=O)COc3ccc(C(C)(C)C)cc32)CC1`, the “hERG current change (%, negative = inhibition) at 10uM” value was -14%.

With `CC(C)CNC(=S)NC1CCCC1`, the “hERG current change (%, negative = inhibition) at 10uM” value amounted to 6.83%.

For the compound `Cc1ccc(S(=O)(=O)N2CCCCC2)cc1NC(=O)C1=NN(c2ccccc2)C(=O)CC1`, the “hERG current change (%, negative = inhibition) at 10uM” value is recorded as -3.12%.

`O=C(Oc1ccccc1OC(=O)N1CCOCC1)N1CCOCC1`: the “hERG current change (%, negative = inhibition) at 10uM” value came out at 10.3%.

`CC1CN(C(=O)Cn2cnc3c2c(=O)n(C)c(=O)n3C)CC(C)O1` (centres unmarked): the “hERG current change (%, negative = inhibition) at 10uM” value was 6.58%.

Consider `Cn1cnc([N+](=O)[O-])c1Sc1nnc(-c2cccnc2)n1C`, for which the “hERG current change (%, negative = inhibition) at 10uM” value worked out at 22.5%.

Consider `COc1ccc(CCN2CC34C=CC(O3)C(C(=O)NCc3ccccc3)C4C2=O)cc1OC` (centres unmarked), for which the “hERG current change (%, negative = inhibition) at 10uM” value amounted to 13.5%.

For the compound `C[C@H](NC(=O)[C@@H]1Cc2ccccc2CN1C(=O)OC(C)(C)C)C(=O)NC1CCCC1`, the “hERG current change (%, negative = inhibition) at 10uM” value came out at 13.7%.

Consider `CCN(Cc1ccncc1)C(=O)c1cc(COc2ccc(F)cc2F)on1`, for which the “hERG current change (%, negative = inhibition) at 10uM” value is -36%.

With `CC(=O)N1CCN(C(=O)c2cccc(S(=O)(=O)N3CCN(c4ccc(F)cc4)CC3)c2)CC1`, the “hERG current change (%, negative = inhibition) at 10uM” value is listed as -20.1%.

In the case of `O=C(CN1CCN(c2ncccn2)CC1)NCc1ccccc1`, the “hERG current change (%, negative = inhibition) at 10uM” value is 6.18%.

As for `O=C1c2ccccc2NC(c2cccc(Cl)c2)N1N=C1CCCCCC1` (centres unmarked), the “hERG current change (%, negative = inhibition) at 10uM” value was -2.41%.

As to `CC1=C(C(=O)OCc2ccccc2)C(c2ccc([N+](=O)[O-])cc2)NC(=O)N1CCCCCC(=O)O` (centres unmarked), the “hERG current change (%, negative = inhibition) at 10uM” value was -4.88%.

For `CCN(CC)S(=O)(=O)c1ccc(NC(=O)CCNC(=O)c2ccco2)cc1`, the “hERG current change (%, negative = inhibition) at 10uM” value came out at 11.8%.

Turning to `CCN(CC)C(=O)Cn1c(=O)n(C)c2ccccc21`, the “hERG current change (%, negative = inhibition) at 10uM” value came out at 3.86%.

For the compound `Cc1ccc(NC(=O)CS(=O)(=O)c2c[nH]c3ccccc23)c(C)c1`, the “hERG current change (%, negative = inhibition) at 10uM” value is 11.9%.

With `O=C(O)c1ccc(NC(=O)C2C3CCC(C3)C2C(=O)O)cc1` (centres unmarked), the “hERG current change (%, negative = inhibition) at 10uM” value stood at 19%.

With `COc1ccccc1C(=O)NCc1ccccn1`, the “hERG current change (%, negative = inhibition) at 10uM” value was 18.4%.

On to `COc1ccc(/C=C/S(=O)(=O)NCc2ccccc2)cc1OC`, for which the “hERG current change (%, negative = inhibition) at 10uM” value is on record as -3.58%.
